Assay results from PubChem BioAssay AID1346428 (National Center for Advancing Translational Sciences (NCATS), 2018).
Hit rate of the full screen: of about 48,000 compounds, about 1,200 (2.5%) were called active. Another 2% or so got no clear call; they are omitted.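 Rule for the calls: active = activation of at least 60% and not above a set upper limit (about 1 call in 100 departs from these limits); inconclusive = activation of 40% to 60%, or above that upper limit; inactive = activation under 40%.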 This is one part of the list.

Biological target: Probable G-protein coupled receptor 32 (Homo sapiens) (UniProt O75388)
Chain of UniProt O75388 (O75388 whole entry, looked up): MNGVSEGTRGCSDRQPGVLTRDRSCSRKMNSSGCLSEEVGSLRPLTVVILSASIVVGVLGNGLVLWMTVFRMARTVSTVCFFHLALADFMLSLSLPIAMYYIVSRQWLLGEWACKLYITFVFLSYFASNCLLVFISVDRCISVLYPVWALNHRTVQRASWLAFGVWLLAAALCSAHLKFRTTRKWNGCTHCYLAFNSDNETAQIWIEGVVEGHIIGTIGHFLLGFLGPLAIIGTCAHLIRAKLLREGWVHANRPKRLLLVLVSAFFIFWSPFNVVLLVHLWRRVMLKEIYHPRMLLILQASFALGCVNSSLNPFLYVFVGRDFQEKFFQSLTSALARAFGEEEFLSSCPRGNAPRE
Experiment: qHTS for Agonists of Human Resolvin D1 Receptor DRV1; note: 0% is about no effect
Settings: CHO-K1 GPR32 beta-arrestin PathHunter luminescence, 90 min; at 76.9 µM; stronger effect = higher value; zero percent set by DMSO-only wells
Procedure, shortened: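 Luminescent readout of beta-Gal complementation quantifies ligand-induced beta-arrestin association with GPR32 in CHO-K1 cells; 90 min compound incubation at 37 °C, detection 1 h at room temperature.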

activation, active:
Cc1cccc(Oc2ccc3c(c2)Oc2ccccc2NC3=O)c1 94.8%

activation, inactive:
COc1cccc(NC(=O)c2oc3ccc(S(=O)(=O)N4CCOCC4)cc3c2C)c1 -16.2%
CC(=O)c1cccc(Nc2ncnc3c2cnn3-c2cccc(Cl)c2)c1 -3.74%
COc1cccc(NC(=O)CC2Oc3ccccc3NC2=O)c1 (stereo not given) -0.552%
C=Cc1ccc(Cn2c(C(=O)OC)cc3sc(C)cc32)cc1 -21.6%
CC(=O)Nc1c(C(=O)Nc2ccccc2F)oc2ccccc12 15.8%
CCc1ccc(Nc2nc3c(S(=O)(=O)c4cccc(Cl)c4)nnn3c3ccsc23)cc1 -6.56%
CNc1nc(Oc2ccc(=O)[nH]n2)nc(N2CCOCC2)n1 5.89%
COc1ccc(-n2cc(C(=O)Nc3ccccc3C#N)c3ccccc3c2=O)cc1 -20%
CC(C)(C)c1ccc(S(=O)(=O)N2CCC(c3ccncc3)CC2)cc1 -0.669%
CCOc1ccc(NC(=O)Cn2c(=O)n(Cc3ccccc3)c(=O)c3c4c(sc32)CN(C(C)=O)CC4)cc1 -3.05%
Cc1ccc(NC(=O)CN2C(=O)COc3ccc(S(=O)(=O)N4CCOCC4)cc32)c(Cl)c1 -37.6%
COc1cccc(-n2cc(C(=O)Nc3ccccc3C(N)=O)c3ccccc3c2=O)c1 -11.4%
Cc1nc(SCCOc2ccc(Cl)cc2)[nH]c(=O)c1Cc1ccccc1 -1.56%
O=C(c1cccc([N+](=O)[O-])c1)N1CCN(CCc2ccncc2)CC1 -5.31%
CCOc1ccccc1NC(=O)c1nn(-c2ccc(OC)cc2)c(=O)c2c1c1ccccc1n2C -1.89%
COc1ccc(N2CC(NC(=O)C3CCCC3)CC2=O)cc1 (stereo not given) -2.49%
COc1ccc(OC)c(CNC(=O)CCC(=O)N2Cc3ccccc3Oc3ncccc32)c1 -3.63%
COc1ccc2nc(NC(=O)c3nc(SCc4cccc(C)c4)ncc3Cl)sc2c1 -0.997%
Cc1ccccc1CNC(=O)Cn1cc2c(n1)-c1c(oc(C(=O)N3CCCC3)c1C)CC2 6.43%
COc1ccccc1NC(=O)C1=C(C)Nc2ncnn2C1c1sccc1C (stereo not given) -4.3%
CC1CCc2c(sc(NC(=O)COc3ccccc3C(C)(C)C)c2C#N)C1 (stereo not given) 18.3%
O=C(CSc1nc2c([nH]c3ccccc32)c(=O)n1-c1ccccc1)N1CCCCCC1 -31.8%
O=C(O)c1ccc(NC(=O)c2cc3ccccc3o2)cc1 1.88%
O=C(NCCCN1CCN(c2ccccc2F)CC1)c1cc2c(s1)-c1ccccc1OC2 7.3%
Cc1ccc(NC(=O)Cn2c(SCc3ccc(F)cc3)nc3cccnc32)cc1F 0.328%
CSCCC(NS(=O)(=O)c1ccc2c(c1)oc(=O)n2C)C(=O)N1CCN(c2ccc(F)cc2)CC1 (stereo not given) -9.34%
CCCCOc1ccc(C(=O)N/C(=C\c2ccc(Br)cc2)C(=O)NC2CCCCC2)cc1 -5.18%
CCc1ccc(-n2nc(C)c3c(C)cc(=O)n(CC(=O)Nc4ccccc4C(=O)OC)c32)cc1 27.9%
CCc1cccc(NC(=O)CCS(=O)(=O)c2ccc3nc(C)sc3c2)c1 4.95%
Cc1cccc(-n2ccnc2SCC(=O)Nc2ccc3c(c2)OCO3)c1 9.39%
O=C(Nc1cccc(F)c1)C1CCN(c2nc3ccccc3[nH]2)CC1 6.02%
COc1ccc(CN2C(=O)c3oc4ccccc4c(=O)c3C2c2ccc(O)c(OC)c2)cc1 (stereo not given) -9.1%
COc1ccc(CNc2ncnc3c2cnn3-c2ccc(C)c(C)c2)cc1 0.619%
COc1cccc(C(=O)NC2CC(=O)N(c3ccc4c(c3)OCCO4)C2)c1OC (stereo not given) 21.3%
CCCCSCCCNC(=O)C1CCC(CNS(=O)(=O)c2c(C)cc(C)cc2C)CC1 (stereo not given) -12.5%
CCOc1ccc(CNC(=O)c2ccc3c(c2)nc2n3CCC(C)C2)cc1OC (stereo not given) -7.88%
Cc1csc2nc(CCNS(=O)(=O)c3ccc(F)cc3)cn12 -9.32%
CC(=O)c1ccc(NC(=O)CCc2c(C)nn(-c3ccc(N4CCCCC4)nn3)c2C)cc1 -5.43%
Cc1ccc(NC(=O)Cn2cc(S(=O)(=O)N3CCC(C)CC3)c3ccccc3c2=O)c(Br)c1 -2.46%
COc1ccc(CNC(=O)c2cnn(-c3ccc(F)cc3)c2-n2cccc2)cc1 -11.5%
CCCCN(CCCNC(=O)c1c(C)oc2nc[nH]c(=O)c12)Cc1ccccc1 -15.7%
Cc1ccc(Nc2c(-c3cccnc3)nc3ccc(Br)cn23)cc1 -0.556%
CNC(=O)c1c(NC(=O)c2ccc(S(=O)(=O)N3CCCCC3C)cc2)sc2c1CCC2 (stereo not given) -3.93%
O=S(=O)(Nc1cccc(-c2ccc(N3CCCC3)nn2)c1)c1ccc(F)c(C(F)(F)F)c1 -0.329%
COc1ccc(-c2nnc(SCC(=O)N(C)Cc3ccccc3)o2)cc1OC 1.14%
COc1cccc(N2CCN(C(=O)CN3C(=O)COc4ccc(S(=O)(=O)N5CCC(C)CC5)cc43)CC2)c1 17.9%
CCOC(=O)c1cc(-c2ccccc2)n(-c2cccc(C(=O)Nc3cccc(C(C)=O)c3)c2)c1C -22.3%
Cc1oc2c(c(C)cc3oc(=O)c(CC(=O)NCc4ccccc4)c(C)c32)c1C -2.56%
COc1ccc(C)cc1-n1nnc(C(=O)Nc2cccc(SC)c2)c1C -2.23%
Cc1c(Cl)cccc1NC(=O)Cn1cc2c(n1)CCCC2 -9.75%
COc1ccc(C(=O)NCC(c2cccnc2)N2CCc3ccccc32)cc1OC (stereo not given) -23.9%
Cc1cccc(CNC(=O)c2ccc(NC(=O)N3CCSc4ccccc43)cc2)c1 -15.1%
CCCc1cc(=O)[nH]c(Nc2cc(Cl)ccc2OC)n1 -9.49%
CCC(C)NC(=O)c1sc2ncccc2c1-n1c(C)ccc1C (stereo not given) -4.85%
Cc1ccc(-n2nc(C(=O)N3CCN(c4cccc(C(F)(F)F)c4)CC3)c3c4ccccc4n(C)c3c2=O)cc1 7.56%
Cc1ccc(C)c(-c2[nH]c3c(c2-c2c(-n4cccc4)n(C)c(=O)n(C)c2=O)c(=O)n(C)c(=O)n3C)c1 -12%
CCOc1cc(C2c3c(oc4ccccc4c3=O)C(=O)N2c2ccccn2)ccc1O (stereo not given) -5.12%
CCOC(=O)c1ccc2[nH]c(CSc3nnc(-c4cccc(F)c4)n3C)cc(=O)c2c1 -6.32%
Cc1ccc(CNc2nccn(-c3cc(C)cc(C)c3)c2=O)cc1 46.8%
Cc1ccc(CNc2cc(C)nc3nc(-c4cccc(C)c4)nn23)cc1 36.2%
COc1ccc(OC)c(NC(=O)c2cc(=O)c3c(C)cc(C)cc3o2)c1 -6.9%
CCOC(=O)c1c(NC(=O)c2cc(Cl)ccc2Cl)sc2c1CCCC2 -3.57%
CN(C(=O)CSc1nc2ccc(NC(=O)COc3ccccc3)cc2s1)c1ccccc1 5.04%
Cc1cc(C)n(CCc2nc3c4ccccc4nc(N4CCN(c5ccc(F)cc5)CC4)n3n2)n1 7.34%
Cc1cn2c(=O)c(S(=O)(=O)NCc3ccccc3Cl)c(C)nc2s1 -7.89%
CCOC(=O)c1cccc(NC(=O)CCc2c(C)nn(-c3ccc(N4CCOCC4)nn3)c2C)c1 7.48%
CCN(C(=O)CSc1nc2n[nH]c(C)c2c(=N)n1-c1cccc(OC)c1)c1cccc(C)c1 24%
CCN(C(=O)CSc1nc2ccccc2n1CC(=O)Nc1ccc(F)cc1F)c1ccccc1 -9.8%
COc1ccc(-c2ccc(CCC(=O)O)n2-c2ccc(Cl)cc2C)cc1 -5.49%
COc1ccc(C2Oc3nc(SC)nnc3-c3ccccc3N2C(C)=O)cc1 (stereo not given) 2.85%
CCc1ccc(-n2nc(CO)c(C(=O)NCc3ccccc3OC)n2)cc1 -1.56%
CCn1cc(S(=O)(=O)c2cccc(C)c2)c(=O)c2cc(F)c(N3CCN(c4ccccc4)CC3)cc21 -8.71%
Cc1ccc2[nH]c3c(=O)n(CC(=O)NCCc4ccc(Cl)cc4)ncc3c2c1 -14.4%
COc1ccc(NC(=O)C2CCN(c3cnccn3)CC2)cc1Cl 5.98%
COCCCn1c(=O)c2sccc2n2c(CCCC(=O)NCc3ccc(F)cc3)nnc12 0.409%
O=C(Nc1ccc2oc(-c3ccc(Cl)cc3)nc2c1)c1ccc2ccccc2c1 3.26%
O=C(CCOc1ccccc1)N(Cc1cccnc1)c1nc2ccc(F)cc2s1 -16.2%
CCOC(=O)c1c(NC(=O)c2ccc(OC)c(OC)c2)sc2c1CCCCC2 2.44%
Cn1c(=O)oc2cc(S(=O)(=O)N3CCC(C(=O)N4CCN(c5ccc(Cl)cc5)CC4)CC3)ccc21 5.68%
CCOc1ccccc1NC(c1nnc(-c2ccccc2)o1)c1ccc(F)cc1Cl (stereo not given) -28.5%
CCN(C(=O)c1cc2c(=O)oc3ccc(C)cc3c2s1)c1ccccc1F 4.97%
CCN(CC)c1cc(C)c2cc(NC(=O)c3ccc(F)cc3Cl)ccc2n1 18.1%
CCN(CC)CCCN(c1ccccc1)C1Cc2ccccc2C1 -12.9%
CCOC(=O)c1cc(C)n(CC2CCC(C(=O)Nc3ccc(C(=O)OC)cc3)CC2)c1C (stereo not given) -19.4%
